This is one part of the list. Cleavage of a single-stranded DNA pool by Rep nickase domains was read by sequencing for 1 h at 37 °C with 3 µM enzyme; only the middle of the 90-letter strands is printed. Uncut reads are compared with the no-enzyme pool on a log2 scale; strong cutting gives strongly negative numbers. There is no active / inactive call. The scaling is to total reads, so uncut sequences can rise above 0 when many others are cut.
Test system: T1, Rep nickase domain of tomato golden mosaic virus
T1 sequence (residues 1-124 of Rep, tag left off): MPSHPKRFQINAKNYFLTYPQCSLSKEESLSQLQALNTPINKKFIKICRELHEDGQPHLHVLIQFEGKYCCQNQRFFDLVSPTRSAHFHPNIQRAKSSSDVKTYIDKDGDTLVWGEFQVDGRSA
Test: uncleaved DNA left, log2 of reads against the no-enzyme library (log2 ratio); higher = less cleavage (more negative = more Rep cleavage of the k-mer); sequences stand for … in CTCGTCCG…ACCGGAGA
Protocol: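 A pool of 90-nt single-stranded DNAs with seven random bases just before the constant AC of the nick site (name = the seven bases) was cut by 3 µM recombinant His6-SUMO-tagged Rep nickase domain (300 nM DNA, 50 mM HEPES pH 8.0, 50 mM NaCl, 1 mM MnCl2, 1 h, 37 °C, three replicates). Uncut DNA was amplified and sequenced.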

| Sequence | uncleaved DNA left (log2) |
| --- | --- |
| ACTATTT | -0.053 |
| CAAAAAC | -0.0323 |
| CTCTGTA | -0.0474 |
| AGCATCA | 0.0582 |
| GCACATA | -0.12 |
| AGAGGGC | 0.19 |
| AAGGAGT | -0.0283 |
| GCCCACA | -0.00354 |
| CCGCCTA | 0.0201 |
| GGCTAAT | 0.0977 |
| GTCAATG | 0.0526 |
| TGTTAGG | 0.189 |
| AAAGGAA | 0.0466 |
| GTGAACT | -0.0168 |
| TCCGACA | 0.052 |
| CCAGCTA | -0.137 |
| CTAGATC | 0.0991 |
| TTATCCA | -0.0324 |
| AACATGT | 0.0768 |
| GCACCCC | -0.147 |

| Sequence | uncleaved DNA left (log2) |
| --- | --- |
| ACGATGC | 0.0929 |
| ACCATAA | 0.0742 |
| ACGCATC | 0.141 |
| GGGGGGC | 0.0155 |
| CGTAGCA | 0.0691 |
| ATAATAC | 0.017 |
| AAGTGCA | -0.00314 |
| GTGAGCA | 0.129 |
| CCTAATT | 0.0348 |
| CTGTCTG | -0.0331 |
| CACGTTT | -0.101 |
| AATCCTG | 0.0543 |
| GGAGTCT | 0.07 |
| TGTTCTT | -0.108 |
| ATGAAGG | 0.094 |
| TCGCATG | -0.135 |
| GGACATA | -0.00676 |
| GGGCTAG | 0.256 |
| AGGTTCC | -0.158 |
| CACTCCA | -0.05 |
